Measurements: paper PMC4336329 (PLoS ONE, 2015)
Out of some 310,000 compounds screened, about 14,000 (4.5%) showed an effect of 50% or more. Effects have a minus sign here. The list shows a part of the results.
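Further: peak tail current of the secondary pulse compared with the same well before compound.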

Each compound was assayed against human ether-à-go-go-related gene (hERG) potassium channel (human, UniProt Q12809) (assay: primary screen, population patch clamp on CHO cells stably expressing hERG).
Sequence of human ether-à-go-go-related gene (hERG) potassium channel (Q12809 whole entry, looked up): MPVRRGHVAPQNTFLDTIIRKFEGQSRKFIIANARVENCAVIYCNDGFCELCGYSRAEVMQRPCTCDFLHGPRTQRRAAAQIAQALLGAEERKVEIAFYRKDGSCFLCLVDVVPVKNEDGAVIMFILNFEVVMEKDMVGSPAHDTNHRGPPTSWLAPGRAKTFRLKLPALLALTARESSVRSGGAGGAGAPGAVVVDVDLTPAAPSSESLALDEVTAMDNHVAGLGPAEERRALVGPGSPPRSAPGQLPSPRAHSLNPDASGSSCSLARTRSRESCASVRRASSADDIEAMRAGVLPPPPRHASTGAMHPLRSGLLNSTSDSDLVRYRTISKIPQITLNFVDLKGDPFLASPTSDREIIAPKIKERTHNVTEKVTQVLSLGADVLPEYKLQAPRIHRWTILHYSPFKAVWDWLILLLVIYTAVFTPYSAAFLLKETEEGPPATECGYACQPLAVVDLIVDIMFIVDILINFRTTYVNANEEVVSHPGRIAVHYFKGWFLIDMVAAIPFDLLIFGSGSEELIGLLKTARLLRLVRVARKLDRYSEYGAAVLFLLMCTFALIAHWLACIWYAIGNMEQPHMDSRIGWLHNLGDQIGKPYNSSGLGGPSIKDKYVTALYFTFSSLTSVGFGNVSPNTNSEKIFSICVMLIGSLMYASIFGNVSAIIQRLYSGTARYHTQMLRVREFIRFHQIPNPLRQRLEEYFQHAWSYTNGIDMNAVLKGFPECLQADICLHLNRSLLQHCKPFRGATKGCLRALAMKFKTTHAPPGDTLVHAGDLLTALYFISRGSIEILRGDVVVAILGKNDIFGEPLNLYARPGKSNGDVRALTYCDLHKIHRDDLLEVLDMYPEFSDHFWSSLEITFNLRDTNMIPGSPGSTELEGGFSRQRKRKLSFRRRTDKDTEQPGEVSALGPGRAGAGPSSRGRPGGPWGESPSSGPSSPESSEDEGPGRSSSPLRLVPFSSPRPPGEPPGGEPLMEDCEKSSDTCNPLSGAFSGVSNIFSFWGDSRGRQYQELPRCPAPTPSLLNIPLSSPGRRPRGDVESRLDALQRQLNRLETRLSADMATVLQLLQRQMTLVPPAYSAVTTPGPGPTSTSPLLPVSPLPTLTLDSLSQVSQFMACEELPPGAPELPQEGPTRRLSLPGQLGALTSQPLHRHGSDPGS
With `Cc1ccc2c(O)c(C)c(=O)[nH]c2n1` the “hERG current change (%, negative = inhibition) at 10uM” value was 24.3%.
`COc1ccccc1NC(=O)N1CCCC1C(=O)NC1CCCCC1` (stereo not drawn) was tested, and the “hERG current change (%, negative = inhibition) at 10uM” value was 9.76%.
With `CC1CN(C)C(C)CC1NCc1ccc2c(c1)OCO2` (stereo not drawn) the “hERG current change (%, negative = inhibition) at 10uM” value was 2.23%.
In the case of `Cc1ccc(Cl)cc1N1CCN(S(=O)(=O)c2ccc3c(c2)oc(=O)n3C)CC1`, the “hERG current change (%, negative = inhibition) at 10uM” value is reported as -1.03%.
In the case of `Cc1cc(=O)oc2cc(OCc3ccc(C(=O)N4CCN(c5ccccc5)CC4)cc3)ccc12`, the “hERG current change (%, negative = inhibition) at 10uM” value is reported as 12.3%.
`Cc1ccc(C)c(NC(=O)C2C(c3ccccc3)C2(Cl)Cl)c1` (stereo not drawn) was tested, and the “hERG current change (%, negative = inhibition) at 10uM” value was -0.995%.
For `Clc1ccc(CSc2snnc2-c2ccccc2)c(Cl)c1`, the “hERG current change (%, negative = inhibition) at 10uM” value was 2.83%.
For `Cc1csc(SCC(=O)NCc2ccccc2Cl)n1`, the “hERG current change (%, negative = inhibition) at 10uM” value was -4.12%.
For `CN=C(c1ccco1)n1c(=S)nc(-c2ccco2)n(C)c1=S`, the “hERG current change (%, negative = inhibition) at 10uM” value was 9.7%.
In the case of `COc1ccccc1C(=O)NC(=S)Nc1ccc(N2CCCC2)cc1`, the “hERG current change (%, negative = inhibition) at 10uM” value is reported as 3.11%.
`Cc1ccccc1OCCC(=O)OCC(=O)NC1CCCCC1` was tested, and the “hERG current change (%, negative = inhibition) at 10uM” value was -12.2%.
With `CN(C)S(=O)(=O)c1cccc(NC(=O)C2Cc3ccccc3CN2C(=O)c2ccco2)c1` (stereo not drawn) the “hERG current change (%, negative = inhibition) at 10uM” value was -30.4%.
In the case of `COC(=O)c1ccccc1NC(=O)CN1CCC(C(=O)c2ccc3c(c2)OCCO3)CC1`, the “hERG current change (%, negative = inhibition) at 10uM” value is reported as 11.2%.
In the case of `Cc1ccc(C)c(S(=O)(=O)Nc2ccc(C(=O)NCCCN3CCCC3=O)cc2)c1`, the “hERG current change (%, negative = inhibition) at 10uM” value is reported as 10.1%.
`Cc1cc(CN2CCC(N3CCC(C(=O)NC4CC4)CC3)CC2)cc(C)c1O` was tested, and the “hERG current change (%, negative = inhibition) at 10uM” value was 10.6%.
In the case of `CCN1/C(=C(\O)c2ccccc2)C(=O)c2ccccc2S1(=O)=O`, the “hERG current change (%, negative = inhibition) at 10uM” value is reported as 6.32%.
In the case of `Cc1ccc(CNC(=O)C(Cc2ccccc2)n2cccc2)cc1` (stereo not drawn), the “hERG current change (%, negative = inhibition) at 10uM” value is reported as -9.77%.
With `Cc1ccc(-c2nc(C#N)c(NCCN3CCCCC3)o2)cc1` the “hERG current change (%, negative = inhibition) at 10uM” value was -55.8%.
With `O=c1cc(NCc2ccccc2)nc2n1CCCS2` the “hERG current change (%, negative = inhibition) at 10uM” value was -0.847%.
With `COC(=O)/C(=C\Nc1ccc(Cl)c2ccccc12)c1ncc(C(F)(F)F)cc1Cl` the “hERG current change (%, negative = inhibition) at 10uM” value was 16.6%.
`Cc1cccc(NC(=O)C(=O)NCc2ccccn2)c1` was tested, and the “hERG current change (%, negative = inhibition) at 10uM” value was -6.54%.
`COc1cc(/C=C/C(=O)N2CCN(Cc3ccccc3)CC2)cc(OC)c1OC` was tested, and the “hERG current change (%, negative = inhibition) at 10uM” value was 7.2%.
In the case of `CCC(C)(C)NC(=O)c1cc(C(=O)OC)cc([N+](=O)[O-])c1`, the “hERG current change (%, negative = inhibition) at 10uM” value is reported as -18%.
In the case of `CCN(C(=O)CN1CCOCC1)c1c(N)n(Cc2ccccc2)c(=O)[nH]c1=O`, the “hERG current change (%, negative = inhibition) at 10uM” value is reported as 22.2%.
With `COc1ccc(CCNC(=O)c2ccc3c(SCC(=O)O)c4c(nc3c2)CCCC4)cc1OC` the “hERG current change (%, negative = inhibition) at 10uM” value was 13.9%.
For `CN(c1ccc(C(=O)NCc2cccs2)cc1)S(=O)(=O)c1ccccc1`, the “hERG current change (%, negative = inhibition) at 10uM” value was 5.17%.
For `Cc1cccc(NC(=O)CN2C(=O)CCSc3ccc(S(=O)(=O)N4CCOCC4)cc32)c1C`, the “hERG current change (%, negative = inhibition) at 10uM” value was 4.82%.
With `CCOC(=O)c1c(C)[nH]c(C)c1C(=O)CN1C(=O)NC(CC(C)C)C1=O` (stereo not drawn) the “hERG current change (%, negative = inhibition) at 10uM” value was 10%.
In the case of `Cc1cc(S(=O)(=O)N2CCCC2)ccc1OCC(=O)NCc1ccccn1`, the “hERG current change (%, negative = inhibition) at 10uM” value is reported as 4.98%.
With `CN(C)c1ccc(/C=N\Nc2ccccn2)cc1` the “hERG current change (%, negative = inhibition) at 10uM” value was -5.86%.
For `O=C(N/C(=C\c1ccccc1)C(=O)N1CCOCC1)c1ccco1`, the “hERG current change (%, negative = inhibition) at 10uM” value was 17.1%.
With `CC12CCC(=O)N1C(C(=O)NCCc1ccccc1)CS2` (stereo not drawn) the “hERG current change (%, negative = inhibition) at 10uM” value was 6.77%.
`Cc1n[nH]c(=O)c2c(NC(=O)CSc3c(Cl)cccc3Cl)oc(C)c12` was tested, and the “hERG current change (%, negative = inhibition) at 10uM” value was -11.8%.
In the case of `CCOC(=O)Nc1c2ccccc2nc2ccccc12`, the “hERG current change (%, negative = inhibition) at 10uM” value is reported as -1.71%.
In the case of `COc1ccccc1CCN1CCCC(CN(C)C(=O)c2ccco2)C1` (stereo not drawn), the “hERG current change (%, negative = inhibition) at 10uM” value is reported as -68.9%.
For `O=C(O)C1CCCN(S(=O)(=O)c2ccccc2[N+](=O)[O-])C1` (stereo not drawn), the “hERG current change (%, negative = inhibition) at 10uM” value was 1.83%.
With `CN(CC(=O)NNC(=O)CNC(=O)c1ccccc1Cl)S(=O)(=O)c1ccc(Cl)cc1` the “hERG current change (%, negative = inhibition) at 10uM” value was 9.57%.
`S=C(NCCCn1ccnc1)NC1CCCCC1` was tested, and the “hERG current change (%, negative = inhibition) at 10uM” value was -13.5%.
For `O=C(NCCCN1CCOCC1)c1cc2nc(-c3ccco3)cc(C(F)(F)F)n2n1`, the “hERG current change (%, negative = inhibition) at 10uM” value was 1.15%.
`C=CCOc1c(Cl)cc(CNc2ccc(N(C)C)cc2)cc1OC` was tested, and the “hERG current change (%, negative = inhibition) at 10uM” value was 19.5%.
In the case of `N#CCCC(CCC#N)(CCC#N)c1cc[n+](CCc2ccccn2)cc1.[Cl-]`, the “hERG current change (%, negative = inhibition) at 10uM” value is reported as 19.9%.
For `CCOc1ccc(C(C(=O)NC2CCCC2)N(CCCO)C(=O)c2ccc(-c3ccccc3)[nH]2)cc1` (stereo not drawn), the “hERG current change (%, negative = inhibition) at 10uM” value was -61.6%.
For `O=C(N/N=C/c1c[nH]c2ccc(Br)cc12)c1ccncc1`, the “hERG current change (%, negative = inhibition) at 10uM” value was 20.1%.
With `O=C(CN1CCc2ccccc2C1)NCc1ccco1` the “hERG current change (%, negative = inhibition) at 10uM” value was -11.9%.
With `Cn1c(=O)n(CCc2ccccc2)c(=O)c2c1nc1n2CCCN1c1ccccc1` the “hERG current change (%, negative = inhibition) at 10uM” value was -20.7%.
`CCCCC(=O)NCCc1cc2c(C)ccc(C)c2[nH]c1=O` was tested, and the “hERG current change (%, negative = inhibition) at 10uM” value was 2.66%.
In the case of `Cc1ccc(Oc2ncccc2C(=O)NCC(=O)O)cc1`, the “hERG current change (%, negative = inhibition) at 10uM” value is reported as 17.2%.
`COc1ccc(OC)c(NC(=O)N2CCCC(CNS(=O)(=O)c3cccs3)C2)c1` (stereo not drawn) was tested, and the “hERG current change (%, negative = inhibition) at 10uM” value was -2.77%.
In the case of `COc1ccc(NC(=O)CN(C)C(C)C(=O)N2CCCCC2)cc1` (stereo not drawn), the “hERG current change (%, negative = inhibition) at 10uM” value is reported as 3.97%.
`Cc1nn(-c2ccccc2)c(C)c1/C=N/NC(=O)c1cc(C(C)(C)C)[nH]n1` was tested, and the “hERG current change (%, negative = inhibition) at 10uM” value was -9.72%.
With `Oc1ccc(CN2CCCc3ccccc32)c2cccnc12` the “hERG current change (%, negative = inhibition) at 10uM” value was -3.86%.
With `COc1ccc(C2C(C(=O)Nc3ccccc3OC)=C(C)Nc3nnnn32)c(OC)c1` (stereo not drawn) the “hERG current change (%, negative = inhibition) at 10uM” value was -0.478%.
With `CCOC(=O)CCNC(=O)c1ccc2nc(C3CCCCC3)oc2c1` the “hERG current change (%, negative = inhibition) at 10uM” value was 1.03%.
For `COc1ccc(CC(=O)OCc2cc3ccccc3[nH]c2=O)cc1`, the “hERG current change (%, negative = inhibition) at 10uM” value was 9.28%.
In the case of `COC(=O)c1sccc1NC(=O)c1csc2c1CCCC2`, the “hERG current change (%, negative = inhibition) at 10uM” value is reported as -10.9%.
In the case of `O=C(c1ccc(CN2CCc3ccccc3C2)cc1)N1CCc2ccccc2C1`, the “hERG current change (%, negative = inhibition) at 10uM” value is reported as -7.54%.
For `O=C(CSc1nnc2c(n1)[nH]c1ccccc12)N1CCCCC1`, the “hERG current change (%, negative = inhibition) at 10uM” value was -21.4%.
